The text below walks through data of ChEMBL document CHEMBL5606460, “ASAP - DENV-2 NS2B-NS3 protease fluorescence single point” (2024).

Structures are written as SMILES. Screen size: about 2,000 compounds; about 110 (5.5%) showed an effect of 50% or more. The list shows a part of the results. Non-standard residues stand in square brackets, D forms with d. Residues, ends and D or L forms follow the SMILES beside them. Phg = N[C@H](C(=O)O)c1ccccc1; 4Amb = NCc1ccc(C(=O)O)cc1; Nle = CCCC[C@H](N)C(=O)O

For the experiment, the target named is Genome polyprotein (dengue virus type 2) (UniProt P29990).
Setting [1] is: Thailand/16681/1984, Concentration 25.0 uM, Number of replicates 1.0.

Broadly, the inhibition is the relative decrease from the control value, in per cent. Take `CNC(=O)C1CN(S(=O)(=O)c2ccc(Oc3ccccc3Cl)cc2)C1`: the inhibition is -2.91% (Thailand/16681/1984, Concentration 49.5 uM, Number of replicates 2.0, Standard deviation 0.6617609868736767 %); -2.25% (Thailand/16681/1984, Concentration 99.01 uM, Number of replicates 2.0, Standard deviation 1.3201843648137757 %); -0.895% (Thailand/16681/1984, Concentration 198.0 uM, Number of replicates 2.0, Standard deviation 0.8810764542255104 %).

On to `O=Cc1ccc(N2CCC(C(=O)N3CCN(c4nccs4)CC3)CC2)cc1`, for which the inhibition under setting [1] is 13.6%.

With `O=Cc1ccc(N2CCC(C(=O)N3CC(OCc4ccccc4)C3)CC2)cc1`, the inhibition under setting [1] came to 13.4%.

Consider `O=C(O)[C@H](c1c[nH]c2ccccc12)N1CCC(c2cnc3ccc[nH]c2-3)CC1`, for which the inhibition by setting is: (Thailand/16681/1984, Concentration 49.5 uM, Number of replicates 2.0, Standard deviation 2.9336110336729484 %) -1.93%; (Thailand/16681/1984, Concentration 99.01 uM, Number of replicates 2.0, Standard deviation 1.2688833051000123 %) -1.4%; (Thailand/16681/1984, Concentration 198.0 uM, Number of replicates 2.0, Standard deviation 1.8509089452057481 %) 0.519%.

In the case of `COc1cc(CC(=O)NCc2cccnc2)nc(N2CCNCC2)n1`, the inhibition is -5.12% (Thailand/16681/1984, Concentration 49.5 uM, Number of replicates 2.0, Standard deviation 1.473545535483215 %); -4.77% (Thailand/16681/1984, Concentration 99.01 uM, Number of replicates 2.0, Standard deviation 1.7989399422367844 %); -3.61% (Thailand/16681/1984, Concentration 198.0 uM, Number of replicates 2.0, Standard deviation 1.3802101593440819 %).

In the case of `Cc1cc(CO)c2cccc(Cc3ccccc3NC(=O)CCC3CCNCC3)c2n1`, the inhibition (Thailand/16681/1984, Concentration 49.95 uM, Number of replicates 2.0, Standard deviation 0.7055143046624119 %) was -4.33% and the inhibition (Thailand/16681/1984, Concentration 99.9 uM, Number of replicates 2.0, Standard deviation 1.236554143481246 %) stood at 6.21%.

With `Cc1c(C(=O)NCc2nnc([C@H]3CCCO3)[nH]2)ccc(O)c1NC(=O)c1ccncc1F`, the inhibition is, setting by setting: (Thailand/16681/1984, Concentration 49.5 uM, Number of replicates 2.0, Standard deviation 0.7978838014742209 %) -1.49%; (Thailand/16681/1984, Concentration 99.01 uM, Number of replicates 2.0, Standard deviation 0.2367526511785791 %) -0.579%; (Thailand/16681/1984, Concentration 198.0 uM, Number of replicates 2.0, Standard deviation 0.9012929276836096 %) 0.488%.

On to `CCN(Cc1cnn(CC)c1)C(=O)C1CCN(c2ccc(C=O)cc2)CC1`, for which the inhibition under setting [1] was 12.7%.

`CCOC(=O)c1cc(CNCc2nnc3ccccn23)[nH]n1`: the inhibition (Thailand/16681/1984, Concentration 49.5 uM, Number of replicates 2.0, Standard deviation 0.017813955579008514 %) turned out to be 6.64%; the inhibition (Thailand/16681/1984, Concentration 99.01 uM, Number of replicates 2.0, Standard deviation 0.5926797733534107 %) is 7.63%; the inhibition (Thailand/16681/1984, Concentration 198.0 uM, Number of replicates 2.0, Standard deviation 1.0587355780894199 %) stood at 6.43%.

Take `Cc1cc(CO)c2cccc(Cc3cccc(C(=O)N[C@@H](CCC(N)=O)C(=O)O)c3)c2n1`: the inhibition (Thailand/16681/1984, Concentration 49.95 uM, Number of replicates 2.0, Standard deviation 0.9076569964416333 %) was 26.5% and the inhibition (Thailand/16681/1984, Concentration 99.9 uM, Number of replicates 2.0, Standard deviation 0.5346782919570826 %) was determined as 79%.

`CC(C)Cn1cccc(C(=O)NC2CCNCC2)c1=O`: the inhibition reads like this: (Thailand/16681/1984, Concentration 49.5 uM, Number of replicates 2.0, Standard deviation 3.422975942243665 %) -4.24%; (Thailand/16681/1984, Concentration 99.01 uM, Number of replicates 2.0, Standard deviation 3.654834353859189 %) -4.24%; (Thailand/16681/1984, Concentration 198.0 uM, Number of replicates 2.0, Standard deviation 3.0504034490850622 %) -4.18%.

For the molecule `O=Cc1ccc(N2CCC(C(=O)NC[C@H]3COc4ccccc4O3)CC2)cc1`, under setting [1], the inhibition was found to be 15.5%.

`COc1ccc(-c2ccccc2C(=O)Nc2cnn(C)c2)cn1`: the inhibition runs as follows: (Thailand/16681/1984, Concentration 49.5 uM, Number of replicates 2.0, Standard deviation 0.48212720676586884 %) 0.329%; (Thailand/16681/1984, Concentration 99.01 uM, Number of replicates 2.0, Standard deviation 3.4527724997354117 %) 4.65%; (Thailand/16681/1984, Concentration 198.0 uM, Number of replicates 2.0, Standard deviation 0.5868971730541553 %) -0.295%.

Consider `O=Cc1ccc(N2CCC(C(=O)NCc3ccc4ccccc4n3)CC2)cc1`, for which, under setting [1], the inhibition worked out at 12.8%.

Take `CCOc1cc(COc2cccnc2F)nc(N2CCNCC2)n1`: the inhibition is, setting by setting: (Thailand/16681/1984, Concentration 49.5 uM, Number of replicates 2.0, Standard deviation 1.805689675732107 %) -4.84%; (Thailand/16681/1984, Concentration 99.01 uM, Number of replicates 2.0, Standard deviation 1.6503948919466847 %) -4.71%; (Thailand/16681/1984, Concentration 198.0 uM, Number of replicates 2.0, Standard deviation 2.8994265256358838 %) -4.55%.

Regarding `COc1cc(COc2cncc3ccccc23)nc(N2CCNCC2)n1`, the inhibition is, setting by setting: (Thailand/16681/1984, Concentration 49.5 uM, Number of replicates 2.0, Standard deviation 1.4253912437729723 %) 5.6%; (Thailand/16681/1984, Concentration 99.01 uM, Number of replicates 2.0, Standard deviation 4.778700721357949 %) 12.2%; (Thailand/16681/1984, Concentration 198.0 uM, Number of replicates 2.0, Standard deviation 4.8205002798371135 %) 22.4%.

On to `CN(Cc1nc(-c2cccnc2)no1)C(=O)C1CCN(c2ccc(C=O)cc2)CC1`, for which the inhibition under setting [1] was found to be 13%.

With `O=C(c1nc2ccccc2[nH]1)N1CCC[C@H](c2cc3ccccc3[nH]2)C1`, the inhibition by setting is: (Thailand/16681/1984, Concentration 49.5 uM, Number of replicates 2.0, Standard deviation 1.1995471874399526 %) 5.26%; (Thailand/16681/1984, Concentration 99.01 uM, Number of replicates 2.0, Standard deviation 0.2095396322802774 %) 5.89%; (Thailand/16681/1984, Concentration 198.0 uM, Number of replicates 2.0, Standard deviation 0.1197375107455095 %) 8.94%.

For `O=Cc1ccc(N2CCC(C(=O)N3CCc4c(Br)cccc4C3)CC2)cc1`, the inhibition under setting [1] amounted to 2.83%.

Take `Cc1cc(CO)c2cccc(Cc3ccccc3NC(=O)[C@H](N)CCO)c2n1`: the inhibition (Thailand/16681/1984, Concentration 49.95 uM, Number of replicates 2.0, Standard deviation 1.1804730410904682 %) is -2.49% and the inhibition (Thailand/16681/1984, Concentration 99.9 uM, Number of replicates 2.0, Standard deviation 1.1029287785847963 %) was -0.758%.

`CCCC[C@H](NC(C)=O)C(=O)N[C@H](C(=O)NCc1ccc(C(N)=O)cc1)c1ccccc1` (Ac-[Nle]-[Phg]-[4Amb]-NH2): the inhibition (Thailand/16681/1984, Concentration 49.5 uM, Number of replicates 2.0, Standard deviation 0.4432432329236086 %) was -1.46%; the inhibition (Thailand/16681/1984, Concentration 99.01 uM, Number of replicates 2.0, Standard deviation 0.9541533154251546 %) is -0.354%; the inhibition (Thailand/16681/1984, Concentration 198.0 uM, Number of replicates 2.0, Standard deviation 1.9838414541082603 %) is 1.79%.
